# Results from the supplement of paper PMC3334620.
# In all, about 33,000 sequences were measured (“E-score (-0.5 to 0.5)”: median about -0.036, highest 2% from about 0.37 on). This is one part of the list.
# Target: T1, Yer064c (UniProt P40041)
# T1 sequence: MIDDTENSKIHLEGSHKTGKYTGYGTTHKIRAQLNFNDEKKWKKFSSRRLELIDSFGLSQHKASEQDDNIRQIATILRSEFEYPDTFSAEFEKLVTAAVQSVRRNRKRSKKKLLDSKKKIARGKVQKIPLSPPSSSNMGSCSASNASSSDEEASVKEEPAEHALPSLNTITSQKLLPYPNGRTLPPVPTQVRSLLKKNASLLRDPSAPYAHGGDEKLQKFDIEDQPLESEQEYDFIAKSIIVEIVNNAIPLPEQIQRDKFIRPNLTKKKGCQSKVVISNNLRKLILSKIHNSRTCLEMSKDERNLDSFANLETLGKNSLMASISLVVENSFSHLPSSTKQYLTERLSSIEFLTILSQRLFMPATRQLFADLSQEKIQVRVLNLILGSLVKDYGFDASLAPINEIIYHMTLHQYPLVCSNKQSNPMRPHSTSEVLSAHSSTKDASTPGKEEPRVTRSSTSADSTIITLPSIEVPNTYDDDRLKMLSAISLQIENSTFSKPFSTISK
# Assay: PBM E-score (8-mer binding enrichment) (E-score (-0.5 to 0.5)); higher = stronger / more preferred TF binding; most listed sequences are background and not binding sites
# Details: protein concentration: 200 nM; construct: GST-full length
# Summary of the method: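 Masliner-normalised scans of fluorescent anti-GST signal were the basis for scoring. That signal came from GST-tagged yeast transcription factors applied at about 100-200 nM to double-stranded universal all-10-mer Agilent arrays on fresh or once-stripped slides. Each ungapped eight-base word, pooled with its reverse complement, received an E-score from the Universal PBM Analysis Suite.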
row,Sequence,PBM E-score
1,CTGCACCA,-0.0637
2,CCAGGCAA,-0.212
3,CCTAGTAC,-0.0424
4,AGCGAGAC,0.0409
5,CTTTTGTA,0.258
6,ACGACGGG,-0.322
7,CTCATGCC,0.109
8,CAGTAACC,0.00134
9,ATTCCCCA,-0.21
10,AACTTTGT,0.0336
11,CTTCTGGC,0.00174
12,GGTTATCA,-0.00079
13,CACGGGCA,-0.24
14,ATCACTTC,0.175
15,AGACCCTC,-0.118
16,CCCTTAAC,-0.172
17,GGGGGACA,-0.0893
18,CGTGGAAG,-0.0442
19,CGCCTTAA,-0.0413
20,GGACCTAA,-0.104
21,CATTCACG,0.0972
22,GGTGTGGA,-0.0929
23,AGAGGTCA,-0.0895
24,CACGGGGC,-0.169
25,CGCCGTGA,0.113

row,Sequence,PBM E-score
1,GGGTAACA,-0.0151
2,CACGCGTC,0.175
3,ATATAATA,0.045
4,CGCCATGC,-0.25
5,CAGAATGA,0.251
6,GAAATGAA,0.122
7,ATCCTTGC,-0.0894
8,AACCATTG,0.123
9,AATTACCC,-0.0514
10,CCAAAGCA,0.0942
11,CCAGAACC,-0.1
12,CCCTAGCA,-0.321
13,GCTCTGCC,-0.248
14,AGCTTGGG,-0.129
15,GGTTTGCA,0.00826
16,GTGTAGAA,-0.039
17,CTATAGAC,-0.121
18,CGACGAAG,0.0591
19,ACTACCTA,0.156
20,GGATTCCC,-0.34
21,CATTGAGA,0.118
22,GGGTTAAC,0.126
23,CCAGGTCA,-0.26
24,CAGCGTCA,-0.0752
25,AGCAAACA,-0.145

row,Sequence,PBM E-score
1,TGGCTCAA,0.332
2,AATCTGAT,0.249
3,CCTCTTAC,-0.231
4,CGTTCAAA,-0.1
5,AGTTCCTG,-0.163
6,CATTGCGA,0.0115
7,CGCTGTCA,-0.159
8,ACCAGTTA,0.0293
9,AGTGTCTC,0.045
10,CCGTTTAA,-0.192
11,AATCCTCG,-0.0311
12,ACAGACTC,0.269
13,GATGTTGC,-0.298
14,CACCCACG,0.0295
15,ATATGGCA,-0.176
16,GCTGCCAA,-0.251
17,CACACAGG,0.00713
18,AAATCGTA,-0.0283
19,GTGTGTGA,0.168
20,GAATGGTA,0.0652
21,ATGGCAAC,0.0267
22,GTTCTTCA,0.125
23,CACTGCAC,0.0241
24,AGTTCTTG,0.00647
25,CTTTTTAC,0.0105

row,Sequence,PBM E-score
1,CGGAATAA,-0.132
2,ATGGTAAA,0.0695
3,AAGATCGT,-0.0713
4,CAGGGTCG,-0.266
5,AGGTTCCG,-0.234
6,AAAGATCC,-0.186
7,CTCTTTTA,0.215
8,AGCCATAC,0.26
9,TGCACAAA,-0.0203
10,CCCGGATC,-0.134
11,ACTAGGGC,0.0527
12,AAGGGGGG,-0.444
13,ATCCAAAG,0.161
14,CGCCGCCG,-0.0397
15,CACAGCGC,-0.0415
16,GTCCTAAC,0.178
17,CAATCGTA,0.0189
18,GGAGGGCA,-0.304
19,CGGTCTAG,0.0113
20,CAATTTCA,-0.0656
21,AAAATACG,-0.00935
22,GACTCTAC,0.38
23,ATTAACCG,0.178
24,CAGTACTG,0.0329
25,ATGGATGC,-0.097

row,Sequence,PBM E-score
1,TACTGGAA,-0.0205
2,AAGTTAGG,-0.0353
3,ACTCCATC,0.204
4,AGTGTCAG,-0.0432
5,CTTAGGGA,-0.0598
6,ACTCGTCA,0.155
7,ACTTCCCC,-0.0461
8,TTCGACAA,0.0693
9,ACGTGCAT,-0.139
10,CTAGCACA,-0.147
11,CCCCAACG,0.0539
12,CGAGTAAC,0.101
13,GTGTATCA,0.223
14,GCTGCGGA,-0.0455
15,GGACCCTA,-0.355
16,ACAACAAG,0.0678
17,CAGCACAC,-0.0998
18,AGGTCTAA,0.0183
19,ACATGCCC,-0.132
20,ACAATCGC,-0.0362
21,CCCGTAGA,-0.145
22,ACCACGGT,-0.155
23,CAAGTCCG,-0.0802
24,AAATATGT,0.0908
25,AAAATACT,0.208

row,Sequence,PBM E-score
1,ATATTCAG,0.126
2,CCCACCAG,-0.121
3,ACGGGACG,-0.252
4,AATCAGGG,0.271
5,GTCAGCGA,0.166
6,ATGAATTG,-0.0367
7,GCACCCCA,-0.26
8,TGTGAACA,-0.185
9,TACGTAAA,0.0313
10,CATCGTAC,0.163
11,GTCGACAC,0.0982
12,CGGGTCAA,0.0197
13,GTGTTGGA,-0.127
14,CACCTTAA,-0.008
15,TGGTCAAA,-0.0461
16,CCAGCCCC,-0.235
17,AATTATGG,-0.0787
18,ATCCCTAC,-0.0319
19,GAGAGGGA,-0.103
20,CAATAGAC,0.05
21,AGGCCAAT,-0.198
22,CCGTTAGG,-0.239
23,AGCTAACA,-0.105
24,ACATCCCA,-0.263
25,GACGCCCA,-0.134

row,Sequence,PBM E-score
1,GGCTTTGA,-0.0627
2,CGACCCTC,-0.0653
3,AAGGCGTG,-0.162
4,AACTAAGG,0.116
5,CTAATAAA,0.113
6,GAGAAGCA,-0.11
7,AGGCGAAC,-0.107
8,CAAGCTAG,-0.24
9,CGCGACGA,0.0243
10,AGAGTAGA,-0.00682
11,AGGTCGCC,-0.0538
12,CAAACACA,0.106
13,CACGTTCC,-0.142
14,ATGAAGCG,-0.197
15,CATCTAGC,-0.192
16,ACCGGTTC,-0.336
17,CTTTATTA,0.097
18,CGACGACG,-0.12
19,CATCCGCA,-0.0245
20,TGGGTCAA,0.0506
21,AGGCAAGA,-0.108
22,AAACTTAT,0.192
